We go through nine molecules from article PMC7904734, “ORP/Osh mediate cross-talk between ER-plasma membrane contact site components and plasma membrane SNAREs” (Cellular and Molecular Life Sciences: CMLS, 2020).

The chains behind the UniProt entries cited, without tags or fusion partners. Where a name states a change or a piece, a line headed by the entry shows the natural chain unless it says otherwise. Residues count along the entry.
UniProt P60880: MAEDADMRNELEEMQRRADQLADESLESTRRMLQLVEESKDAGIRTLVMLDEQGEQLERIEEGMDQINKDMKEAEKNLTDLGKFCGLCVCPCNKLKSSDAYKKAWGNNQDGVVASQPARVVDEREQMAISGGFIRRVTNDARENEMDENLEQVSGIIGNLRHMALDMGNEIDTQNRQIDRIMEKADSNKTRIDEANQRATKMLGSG
UniProt P40357: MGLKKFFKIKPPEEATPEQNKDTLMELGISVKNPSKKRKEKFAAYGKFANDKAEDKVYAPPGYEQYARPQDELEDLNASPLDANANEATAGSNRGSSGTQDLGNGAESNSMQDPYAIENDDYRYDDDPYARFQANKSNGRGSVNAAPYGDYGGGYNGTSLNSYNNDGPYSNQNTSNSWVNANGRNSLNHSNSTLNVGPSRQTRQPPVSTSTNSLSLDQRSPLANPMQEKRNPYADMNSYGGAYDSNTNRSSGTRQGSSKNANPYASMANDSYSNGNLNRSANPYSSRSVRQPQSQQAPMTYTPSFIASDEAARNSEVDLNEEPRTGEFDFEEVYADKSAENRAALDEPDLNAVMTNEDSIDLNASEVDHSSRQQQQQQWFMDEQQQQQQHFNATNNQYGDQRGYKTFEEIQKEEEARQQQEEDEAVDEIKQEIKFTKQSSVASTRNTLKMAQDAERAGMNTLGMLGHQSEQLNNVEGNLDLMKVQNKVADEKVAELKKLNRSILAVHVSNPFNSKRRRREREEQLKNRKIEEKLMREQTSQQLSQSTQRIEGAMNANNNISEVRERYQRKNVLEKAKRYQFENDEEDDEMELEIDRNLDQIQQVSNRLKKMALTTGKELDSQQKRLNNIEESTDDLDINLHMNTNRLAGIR
YFP(C)·Sec9p(1–420): residues 1-420 of P40357
YFP(C)·Sec9p(421–651): residues 421-651 of P40357
UniProt Q9H1P3: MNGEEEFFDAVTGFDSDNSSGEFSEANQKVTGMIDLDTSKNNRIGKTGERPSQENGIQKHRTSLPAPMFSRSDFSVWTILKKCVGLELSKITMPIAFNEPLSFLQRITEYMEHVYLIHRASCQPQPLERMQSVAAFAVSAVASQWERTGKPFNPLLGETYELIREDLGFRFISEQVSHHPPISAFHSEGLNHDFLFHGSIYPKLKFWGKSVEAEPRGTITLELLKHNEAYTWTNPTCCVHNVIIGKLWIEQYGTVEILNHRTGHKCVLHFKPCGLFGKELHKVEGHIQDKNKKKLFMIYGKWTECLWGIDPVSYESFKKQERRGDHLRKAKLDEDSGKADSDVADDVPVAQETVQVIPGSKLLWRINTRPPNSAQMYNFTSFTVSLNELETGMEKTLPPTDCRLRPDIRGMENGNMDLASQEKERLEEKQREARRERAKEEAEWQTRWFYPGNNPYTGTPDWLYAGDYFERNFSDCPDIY
UniProt P35843: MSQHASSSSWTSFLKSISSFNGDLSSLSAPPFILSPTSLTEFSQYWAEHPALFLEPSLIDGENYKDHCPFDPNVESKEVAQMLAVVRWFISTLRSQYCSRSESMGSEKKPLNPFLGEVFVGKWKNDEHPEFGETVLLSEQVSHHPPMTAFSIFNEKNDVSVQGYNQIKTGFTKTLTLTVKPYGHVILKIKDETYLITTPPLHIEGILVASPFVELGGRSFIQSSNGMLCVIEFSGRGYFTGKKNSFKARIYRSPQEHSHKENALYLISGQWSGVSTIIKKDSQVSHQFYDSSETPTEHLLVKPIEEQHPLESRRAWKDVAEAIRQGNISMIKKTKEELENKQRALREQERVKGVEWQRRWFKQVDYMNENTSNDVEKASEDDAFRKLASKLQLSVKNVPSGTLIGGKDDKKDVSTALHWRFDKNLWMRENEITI
UniProt P22214: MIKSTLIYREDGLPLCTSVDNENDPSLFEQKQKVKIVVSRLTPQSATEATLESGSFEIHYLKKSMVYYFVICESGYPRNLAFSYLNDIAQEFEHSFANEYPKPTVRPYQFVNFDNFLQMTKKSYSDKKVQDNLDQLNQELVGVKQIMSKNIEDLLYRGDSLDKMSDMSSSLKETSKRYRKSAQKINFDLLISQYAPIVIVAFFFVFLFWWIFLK

One experiment concerns the target GST·SNAP-25 (UniProt P60880). Description: pull-down; 1 μM GST·SNAP-25 or GST with equimolar pFOLD·ORP2 and Glutathione-Agarose, 100 μl PBS, 1 h, room temperature; SDS-PAGE, Coomassie; both purified.
Experiment [1] concerns the target YFP(C)·Sec9p (S. cerevisiae) (UniProt P40357). Description: split reporter; BiFC of YFP(N) and YFP(C) fusions in living wild type yeast cells grown at 24 °C, fluorescence microscopy; also in exocytosis mutants other than sec9-4 and with OSH3 overexpression (signals enhanced).
Experiment [2] addresses T1, YFP(C)·Scs2p (S. cerevisiae) (UniProt P40075).
T1 sequence: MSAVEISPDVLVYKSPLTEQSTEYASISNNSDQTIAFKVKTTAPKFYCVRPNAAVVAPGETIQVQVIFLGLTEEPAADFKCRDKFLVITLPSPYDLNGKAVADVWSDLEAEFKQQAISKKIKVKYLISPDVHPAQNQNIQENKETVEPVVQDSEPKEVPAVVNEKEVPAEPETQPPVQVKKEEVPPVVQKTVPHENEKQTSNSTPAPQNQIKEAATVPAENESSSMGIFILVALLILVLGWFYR
Put plainly: split reporter; BiFC in living sec9-4 mutant yeast cells (Y6) at the permissive temperature; Osh proteins are degraded in this strain; YFP(C)·Sec9-4p used in place of YFP(C)·Sec9p.

Experiment [3] deals with T1, YFP(C)·Scs2p (S. cerevisiae). Put plainly: split reporter; BiFC of YFP(N) and YFP(C) fusions in living wild type yeast cells grown at 24 °C, fluorescence microscopy; also in exocytosis mutants other than sec9-4 and with OSH3 overexpression (signals enhanced).
For experiment [4] the target is unchanged. Put plainly: split reporter; BiFC in living sec9-4 Δpep4 yeast cells (Y39) at the permissive temperature; Osh3p level restored.
The target in experiment [5] is T2, YFP(N)·HA·Osh3p (S. cerevisiae) (UniProt P38713).
T2 sequence: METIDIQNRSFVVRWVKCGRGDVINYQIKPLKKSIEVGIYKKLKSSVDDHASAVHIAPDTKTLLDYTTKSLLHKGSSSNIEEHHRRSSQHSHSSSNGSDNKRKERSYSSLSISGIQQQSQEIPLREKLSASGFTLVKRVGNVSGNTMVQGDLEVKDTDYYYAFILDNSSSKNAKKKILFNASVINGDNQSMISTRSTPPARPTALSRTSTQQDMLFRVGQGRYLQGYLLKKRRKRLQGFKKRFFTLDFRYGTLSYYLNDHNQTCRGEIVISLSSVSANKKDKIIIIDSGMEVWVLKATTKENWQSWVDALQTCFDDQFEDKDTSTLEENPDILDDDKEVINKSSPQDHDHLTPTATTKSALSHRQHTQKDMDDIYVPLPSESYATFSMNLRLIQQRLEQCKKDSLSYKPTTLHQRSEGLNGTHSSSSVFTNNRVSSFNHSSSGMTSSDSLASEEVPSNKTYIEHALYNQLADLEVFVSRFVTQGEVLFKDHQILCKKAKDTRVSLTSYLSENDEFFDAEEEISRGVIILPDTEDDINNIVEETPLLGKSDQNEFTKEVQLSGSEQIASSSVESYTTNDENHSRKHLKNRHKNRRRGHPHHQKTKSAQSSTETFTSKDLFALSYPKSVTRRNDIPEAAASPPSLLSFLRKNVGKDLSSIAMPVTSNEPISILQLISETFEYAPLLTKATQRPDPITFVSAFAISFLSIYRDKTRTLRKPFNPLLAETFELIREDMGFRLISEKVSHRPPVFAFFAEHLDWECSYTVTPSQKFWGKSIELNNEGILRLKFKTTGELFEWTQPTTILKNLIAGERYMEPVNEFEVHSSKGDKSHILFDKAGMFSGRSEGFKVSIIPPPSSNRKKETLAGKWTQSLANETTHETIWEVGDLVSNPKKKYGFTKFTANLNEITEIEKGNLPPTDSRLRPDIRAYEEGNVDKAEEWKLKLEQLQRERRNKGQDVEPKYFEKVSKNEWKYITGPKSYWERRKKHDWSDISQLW
Put plainly: co-IP; anti-HA immunoprecipitation from lysates of yeast cells expressing YFP(N)·HA·Osh3p or YFP(N)·HA·Osh1p; Western blot; wt and SNARE mutant strains.

The target of experiment [6] is T1, YFP(C)·Scs2p (S. cerevisiae). Description: split reporter; BiFC in living Δosh1-3 yeast cells (Y36), compared with wt (Y2).
Experiment [7] has the same target. Description: split reporter; BiFC of YFP(N) and YFP(C) fusions in living wild type yeast cells grown at 24 °C, fluorescence microscopy; also in exocytosis mutants other than sec9-4 and with OSH3 overexpression (signals enhanced). This is another data set of the same source.
The target in experiment [8] is YFP(C)·Sec9p(1–420) (S. cerevisiae) (UniProt P40357). The experiment is described as above.
Experiment [9] deals with YFP(C)·Sec9p(421–651) (S. cerevisiae) (UniProt P40357). Described as above.
The target in experiment [10] is YFP(C)·Sec9p (S. cerevisiae) (UniProt P40357). The experiment is described as above. This is another data set of the same source.
Experiment [11] has as its target T3, Venus(C)·VAPA (HEK293 plasmid) (human), Q9P0L0.
T3 chain: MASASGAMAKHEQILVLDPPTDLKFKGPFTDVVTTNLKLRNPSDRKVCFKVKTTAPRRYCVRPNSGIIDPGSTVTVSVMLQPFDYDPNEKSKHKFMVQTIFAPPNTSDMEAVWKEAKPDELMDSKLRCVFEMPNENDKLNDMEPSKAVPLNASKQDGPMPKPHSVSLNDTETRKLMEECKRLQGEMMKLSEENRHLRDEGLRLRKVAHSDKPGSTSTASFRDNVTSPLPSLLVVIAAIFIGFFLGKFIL
Description: split reporter; BiFC of Venus(N) and Venus(C) fusions in transfected HEK293 cells, fixed after 24 h; co-transfection marker mCherry or mCherry·ORP. Particulars: remark: other sources report otherwise.

The target of another experiment is T4, FLAG·VAPA (UniProt Q9P0L0).
T4 sequence: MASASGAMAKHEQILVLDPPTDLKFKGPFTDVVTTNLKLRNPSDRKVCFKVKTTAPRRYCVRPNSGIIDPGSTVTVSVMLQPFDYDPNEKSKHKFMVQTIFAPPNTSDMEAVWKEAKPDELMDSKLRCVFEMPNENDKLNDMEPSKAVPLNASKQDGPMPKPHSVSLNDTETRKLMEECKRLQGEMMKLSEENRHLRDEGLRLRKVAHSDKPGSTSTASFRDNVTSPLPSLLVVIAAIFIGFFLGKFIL
Put plainly: co-IP; anti-FLAG M2 magnetic beads, lysates of mouse hippocampal neurons expressing FLAG·VAPA, scrambled shRNA control, DIV 7 and DIV 14; 50 mM Tris HCl pH 7.9, 150 mM NaCl, 1% NP-40; Western blot; ORP2 knock-down at DIV 14 largely without effect. A general note: Immunoblotting shows a protein as a band on a membrane.

For experiment [12], the target named is T5, Venus(C)·VAPA (lentiviral) (human), Q9P0L0.
T5 chain: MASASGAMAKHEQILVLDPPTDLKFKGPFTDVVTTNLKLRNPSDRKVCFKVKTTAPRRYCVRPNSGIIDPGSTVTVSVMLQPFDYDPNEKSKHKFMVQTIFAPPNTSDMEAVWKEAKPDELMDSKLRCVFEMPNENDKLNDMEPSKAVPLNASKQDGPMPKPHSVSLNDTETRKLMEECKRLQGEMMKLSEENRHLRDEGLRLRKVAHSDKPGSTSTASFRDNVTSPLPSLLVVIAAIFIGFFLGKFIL
Put plainly: split reporter; BiFC of Venus(N)·VAPA and Venus(C)·VAPA in wt mouse hippocampal neurons, lentiviral; scrambled or ORP2 shRNA; infected DIV 3 and fixed DIV 7, or infected DIV 7 and fixed DIV 14. Particulars: remark: other sources report otherwise.

Where two headings read alike, the source gives them in different places. No constants are given. Whether binding was seen depends on the method and setting. For part of these data: Binding seen in cells or lysates may run through a third protein. Some entries that bind do so weakly or less than the wild type. For part of these data: Sequences can lack the tags named with a protein.

Regarding “His6·pFOLD·ORP2 (from UniProt Q9H1P3 1-480)”, the binding result in the experiment with GST·SNAP-25 is given as “binds”.
With “YFP(N)·Osh5p (from UniProt P35843 1-434)”, the binding result in experiment [1] is recorded as “binds”.
Consider “YFP(N)·Sec22p (from UniProt P22214 1-214)”, for which the results for the binding entry in experiment [2], in experiment [3] and in experiment [4] were “no binding (condition: in the sec9-4 mutant strain)”, “binds” and “binds”, respectively.
Consider “Sec9p (endogenous) (from UniProt P40357 1-651)”, for which, in experiment [5], the binding result is given as “binds”.

B1: YFP(N)·Scs2p (protein, UniProt P40075 1-244)
chain: MSAVEISPDVLVYKSPLTEQSTEYASISNNSDQTIAFKVKTTAPKFYCVRPNAAVVAPGETIQVQVIFLGLTEEPAADFKCRDKFLVITLPSPYDLNGKAVADVWSDLEAEFKQQAISKKIKVKYLISPDVHPAQNQNIQENKETVEPVVQDSEPKEVPAVVNEKEVPAEPETQPPVQVKKEEVPPVVQKTVPHENEKQTSNSTPAPQNQIKEAATVPAENESSSMGIFILVALLILVLGWFYR
As to B1, the binding result in [6] was “binds weakly”; in [2] it was “no binding (condition: in the sec9-4 mutant strain)”; in experiment [7] it was “binds”; in experiment [4], “binds”.

B2: YFP(N)·Osh3p (protein, UniProt P38713 1-996)
chain: METIDIQNRSFVVRWVKCGRGDVINYQIKPLKKSIEVGIYKKLKSSVDDHASAVHIAPDTKTLLDYTTKSLLHKGSSSNIEEHHRRSSQHSHSSSNGSDNKRKERSYSSLSISGIQQQSQEIPLREKLSASGFTLVKRVGNVSGNTMVQGDLEVKDTDYYYAFILDNSSSKNAKKKILFNASVINGDNQSMISTRSTPPARPTALSRTSTQQDMLFRVGQGRYLQGYLLKKRRKRLQGFKKRFFTLDFRYGTLSYYLNDHNQTCRGEIVISLSSVSANKKDKIIIIDSGMEVWVLKATTKENWQSWVDALQTCFDDQFEDKDTSTLEENPDILDDDKEVINKSSPQDHDHLTPTATTKSALSHRQHTQKDMDDIYVPLPSESYATFSMNLRLIQQRLEQCKKDSLSYKPTTLHQRSEGLNGTHSSSSVFTNNRVSSFNHSSSGMTSSDSLASEEVPSNKTYIEHALYNQLADLEVFVSRFVTQGEVLFKDHQILCKKAKDTRVSLTSYLSENDEFFDAEEEISRGVIILPDTEDDINNIVEETPLLGKSDQNEFTKEVQLSGSEQIASSSVESYTTNDENHSRKHLKNRHKNRRRGHPHHQKTKSAQSSTETFTSKDLFALSYPKSVTRRNDIPEAAASPPSLLSFLRKNVGKDLSSIAMPVTSNEPISILQLISETFEYAPLLTKATQRPDPITFVSAFAISFLSIYRDKTRTLRKPFNPLLAETFELIREDMGFRLISEKVSHRPPVFAFFAEHLDWECSYTVTPSQKFWGKSIELNNEGILRLKFKTTGELFEWTQPTTILKNLIAGERYMEPVNEFEVHSSKGDKSHILFDKAGMFSGRSEGFKVSIIPPPSSNRKKETLAGKWTQSLANETTHETIWEVGDLVSNPKKKYGFTKFTANLNEITEIEKGNLPPTDSRLRPDIRAYEEGNVDKAEEWKLKLEQLQRERRNKGQDVEPKYFEKVSKNEWKYITGPKSYWERRKKHDWSDISQLW
Consider B2, for which the binding entry in experiment [8] is listed as “no binding”; in experiment [9], “binds”; in experiment [10], “binds”; in experiment [7], “binds”; in experiment [4], “binds”.

B3: Venus(N)·VAPA (HEK293 plasmid), Q9P0L0 1-249 (protein)
chain: MASASGAMAKHEQILVLDPPTDLKFKGPFTDVVTTNLKLRNPSDRKVCFKVKTTAPRRYCVRPNSGIIDPGSTVTVSVMLQPFDYDPNEKSKHKFMVQTIFAPPNTSDMEAVWKEAKPDELMDSKLRCVFEMPNENDKLNDMEPSKAVPLNASKQDGPMPKPHSVSLNDTETRKLMEECKRLQGEMMKLSEENRHLRDEGLRLRKVAHSDKPGSTSTASFRDNVTSPLPSLLVVIAAIFIGFFLGKFIL
In the case of B3, the binding entry in experiment [11] was “binds”.

B4: VAPA (endogenous, mouse neurons) (protein, UniProt Q9WV55 1-249)
chain: MASASGAMAKHEQILVLDPPSDLKFKGPFTDVVTTNLKLQNPSDRKVCFKVKTTAPRRYCVRPNSGIIDPGSIVTVSVMLQPFDYDPNEKSKHKFMVQTIFAPPNISDMEAVWKEAKPDELMDSKLRCVFEMPNENDKLNDMEPSKAVPLNASKQDGPLPKPHSVSLNDTETRKLMEECKRLQGEMMKLSEENRHLRDEGLRLRKVAHSDKPGSTSAVSFRDNVTSPLPSLLVVIAAIFIGFFLGKFIL
As for B4, the binding result with FLAG·VAPA is “binds”.

B5: Venus(N)·VAPA (lentiviral), Q9P0L0 1-249 (natural protein)
chain: MASASGAMAKHEQILVLDPPTDLKFKGPFTDVVTTNLKLRNPSDRKVCFKVKTTAPRRYCVRPNSGIIDPGSTVTVSVMLQPFDYDPNEKSKHKFMVQTIFAPPNTSDMEAVWKEAKPDELMDSKLRCVFEMPNENDKLNDMEPSKAVPLNASKQDGPMPKPHSVSLNDTETRKLMEECKRLQGEMMKLSEENRHLRDEGLRLRKVAHSDKPGSTSTASFRDNVTSPLPSLLVVIAAIFIGFFLGKFIL
Turning to B5, the binding entry in experiment [12] is “binds”.
